For 24 compounds, IC50 results are on record in US11618753B2 (priority 2018, dated 2023).

This assay concerns MLKL phosphorylation, HT29-L23 human colorectal adenocarcinoma cells. Nature of the assay: cells. The following applies: read-out: pMLKL HCS Cell Assay (IC50, uM).
Turning to `Cc1cc(C(=O)N2C[C@H](F)[C@H](NC(=O)c3cc(-c4cc(C(F)(F)F)c5c(N)ncnn45)ccc3C)C2)ccn1` [Example 1021, 5-[4-amino-5-(trifluoromethyl)pyrrolo[2,1-f][1,2,4]triazin-7-yl]-N-[(3R,4S)-4-fluoro-1-(2-methylpyridine-4-carbonyl)pyrrolidin-3-yl]-2-methylbenzamide], the IC50 was 0.012 µM.

Take `COc1ncc(-c2c(C#N)cc3c(N)ncnn23)cc1C(=O)N[C@@H]1CN(C(=O)C(C)(C)C(F)(F)F)C[C@@H]1F` [Example 560, 5-(4-amino-6-cyanopyrrolo[2,1-f][1,2,4]triazin-7-yl)-N-((3R,4S)-4-fluoro-1-(3,3,3-trifluoro-2,2-dimethylpropanoyl)pyrrolidin-3-yl)-2-methoxynicotinamide]: the IC50 is 0.219 µM.

Consider `CNc1ccc(-c2cc(C(F)(F)F)c3c(N)ncnn23)cc1C(=O)N[C@@H]1CN(C(=O)CC(C(F)(F)F)C(F)(F)F)C[C@@H]1F` [Example 1135, 5-[4-amino-5-(trifluoromethyl)pyrrolo[2,1-f][1,2,4]triazin-7-yl]-N-[(3R,4S)-4-fluoro-1-[4,4,4-trifluoro-3-(trifluoromethyl)butanoyl]pyrrolidin-3-yl]-2-(methylamino)benzamide], for which the IC50 was 0.032 µM.

Consider `COC[C@@H]1C[C@H](NC(=O)c2cc(-c3cc(C(F)(F)F)c4c(N)ncnn34)cnc2OC)CN1C(=O)C1CC(F)(F)C1` (racemic) [Example 1700, 5-(4-amino-5-(trifluoromethyl)pyrrolo[2,1-f][1,2,4]triazin-7-yl)-N-((3SR,5SR)-1-(3,3-difluorocyclobutane-1-carbonyl)-5-(methoxymethyl)pyrrolidin-3-yl)-2-methoxynicotinamide], for which the IC50 was 0.456 µM.

As for `COc1cc(F)c(-c2cc(CN3CCC(F)(F)CC3)c3c(N)ncnn23)cc1C(=O)N[C@@H]1CN(C(=O)CC(O)(C(F)(F)F)C(F)(F)F)C[C@@H]1F` [Example 1635, 5-{4-amino-5-[(4,4-difluoropiperidin-1-yl)methyl]pyrrolo[2,1-f][1,2,4]triazin-7-yl}-4-fluoro-N-[(3R,4S)-4-fluoro-1-[4,4,4-trifluoro-3-hydroxy-3-(trifluoromethyl)butanoyl]pyrrolidin-3-yl]-2-methoxybenzamide], the IC50 is 0.0081 µM.

Consider `COc1ncc(-c2cc(C(=O)NCCO)c3c(N)ncnn23)cc1C(=O)NCC[C@H](O)c1ccc(Cl)cc1` [Example 474, 5-{4-amino-5-[(2-hydroxyethyl)carbamoyl}pyrrolo[2,1-f][1,2,4]triazin-7-yl]-N-[(3S)-3-(4-chlorophenyl)-3-hydroxypropyl]-2-methoxypyridine-3-carboxamide], for which the IC50 turned out to be 0.098 µM.

Consider `COc1cc(C(=O)N[C@@H]2CN(C(=O)C(C)C(F)(F)F)C[C@@H]2F)cc(-c2cc(C(F)(F)F)c3c(N)ncnn23)c1` (stereo partly drawn) [Example 573, 3-[4-amino-5-(trifluoromethyl)pyrrolo[2,1-f][1,2,4]triazin-7-yl]-N-[(3R,4S)-4-fluoro-1-(3,3,3-trifluoro-2-methylpropanoyl)pyrrolidin-3-yl]-5-methoxybenzamide], for which the IC50 worked out at 0.017 µM.

As to `COc1ncc(-c2cc(C(F)(F)F)c3c(N)ncnn23)cc1C(=O)N[C@@H]1CN(C(=O)N(C)C)C[C@@H]1F` [Example 332, 5-[4-amino-5-(trifluoromethyl)pyrrolo[2,1-f][1,2,4]triazin-7-yl]-N-[(3R,4S)-1-(dimethylcarbamoyl)-4-fluoropyrrolidin-3-yl]-2-methoxypyridine-3-carboxamide], the IC50 turned out to be 0.361 µM.

On to `Nc1ncnn2c(-c3ccc(OC(F)F)c(C(=O)N[C@@H]4CN(C(=O)C5CCC(F)(F)CC5)C[C@@H]4F)c3)cc(C(F)(F)F)c12` [Example 1090, 5-[4-amino-5-(trifluoromethyl)pyrrolo[2,1-f][1,2,4]triazin-7-yl]-N-[(3R,4S)-1-(4,4-difluorocyclohexanecarbonyl)-4-fluoropyrrolidin-3-yl]-2-(difluoromethoxy)benzamide], for which the IC50 amounted to 0.041 µM.

Regarding `Nc1ncnn2c(-c3cc(F)c(CF)c(C(=O)N[C@@H]4CN(C(=O)C5CCC(F)(F)CC5)C[C@@H]4F)c3)cc(C(F)(F)F)c12` [Example 619, 5-[4-amino-5-(trifluoromethyl)pyrrolo[2,1-f][1,2,4]triazin-7-yl]-N-[(3R,S5)-1-(4,4-difluorocyclohexanecarbonyl)-4-fluoropyrrolidin-3-yl]-3-fluoro-2-(fluoromethyl)benzamide], the IC50 came out at 0.0031 µM.

Consider `Cc1cc(F)c(-c2cc(C(F)(F)F)c3c(N)ncnn23)cc1C(=O)N[C@@H]1CN(C(=O)c2ncccc2Br)C[C@@H]1F` [Example 854, 5-[4-amino-5-(trifluoromethyl)pyrrolo[2,1-f][1,2,4]triazin-7-yl]-N-[(3R,4S)-1-(3-bromopyridine-2-carbonyl)-4-fluoropyrrolidin-3-yl]-4-fluoro-2-methylbenzamide], for which the IC50 stood at 0.022 µM.

For the compound `Nc1ncnn2c(-c3ccc(Cl)c(C(=O)N[C@@H]4CN(C(=O)c5ccc(F)c(F)c5)C[C@@H]4F)c3)cc(C(F)(F)F)c12` [Example 948, 5-[4-amino-5-(trifluoromethyl)pyrrolo[2,1-f][1,2,4]triazin-7-yl]-2-chloro-N-[(3R,4S)-1-(3,4-difluorobenzoyl)-4-fluoropyrrolidin-3-yl]benzamide], the IC50 turned out to be 0.022 µM.

With `CCc1ccc(-c2cc(C(F)(F)F)c3c(N)ncnn23)c(F)c1C(=O)N[C@@H]1CN(C(=O)c2ccccc2F)C[C@@H]1F` [Example 744, 3-[4-amino-5-(trifluoromethyl)pyrrolo[2,1-f][1,2,4]triazin-7-yl]-6-ethyl-2-fluoro-N-[(3R,4S)-4-fluoro-1-(2-fluorobenzoyl)pyrrolidin-3-yl]benzamide], the IC50 stood at 0.034 µM.

As for `Nc1ncnn2c(-c3cccc(C(=O)N[C@@H]4CN(C(=O)C5CCC(F)(F)CC5)C[C@@H]4F)c3)cc(C(F)(F)F)c12` [Example 105, 3-[4-amino-5-(trifluoromethyl)pyrrolo[2,1-f][1,2,4]triazin-7-yl]-N-[(3R,4S)-1-(4,4-difluorocyclohexanecarbonyl)-4-fluoropyrrolidin-3-yl]benzamide], the IC50 stood at 0.072 µM.

Regarding `COc1ncc(-c2cc(C(F)(F)F)c3c(N)ncnn23)cc1C(=O)N[C@@H]1CN(C(=O)C2CCCOC2)C[C@@H]1F` (stereo partly drawn) [Example 327, 5-[4-amino-5-(trifluoromethyl)pyrrolo[2,1-f][1,2,4]triazin-7-yl]-N-[(3R,4S)-4-fluoro-1-(oxane-3-carbonyl)pyrrolidin-3-yl]-2-methoxypyridine-3-carboxamide], the IC50 came out at 0.12 µM.

With `C[C@@](O)(C(=O)N1C[C@H](F)[C@H](NC(=O)c2cc(-c3cc(C(F)(F)F)c4c(N)ncnn34)cc(F)c2F)C1)C(F)(F)F` [Example 1332, 5-[4-amino-5-(trifluoromethyl)pyrrolo-[2,1-f][1,2,4]triazin-7-yl]-2,3-difluoro-N-[(3R,4S)-4-fluoro-1-[(2R)-3,3,3-trifluoro-2-hydroxy-2-methyl-propanoyl]pyrrolidin-3-yl]benzamide], the IC50 was found to be 0.00081 µM.

Take `Nc1ncnn2c(-c3cncc(C(=O)N4CCOC(Cc5ccccc5)C4)c3)cc(C(F)(F)F)c12` (stereo not drawn) [Example 287, 7-[5-(2-benzylmorpholine-4-carbonyl)pyridin-3-yl]-5-(trifluoromethyl)pyrrolo[2,1-f][1,2,4]triazin-4-amine]: the half-inhibitory concentration (IC50) was 0.02 µM.

With `Cc1ccc(-c2cc(C(F)(F)F)c3c(N)ncnn23)cc1C(=O)N[C@@H]1CN(C(=O)c2ccc(Cl)cc2)C[C@@H]1F` [Example 1011, 5-[4-amino-5-(trifluoromethyl)pyrrolo[2,1-f][1,2,4]triazin-7-yl]-N-[(3R,4S)-1-(4-chlorobenzoyl)-4-fluoropyrrolidin-3-yl]-2-methylbenzamide], the IC50 was found to be 0.015 µM.

As to `CC(C(=O)N1C[C@H](F)[C@H](NC(=O)c2cc(-c3cc(C(F)(F)F)c4c(N)ncnn34)ccc2OCC(F)(F)F)C1)C(F)(F)F` (stereo partly drawn) [Example 1077, 5-[4-amino-5-(trifluoromethyl)pyrrolo[2,1-f][1,2,4]triazin-7-yl]-N-[(3R,4S)-4-fluoro-1-(3,3,3-trifluoro-2-methylpropanoyl)pyrrolidin-3-trifluoroethoxy)benzamide], the IC50 stood at 0.227 µM.

With `CC(CCNC(=O)c1cccc(-c2cc(C#N)c3c(N)ncnn23)c1)c1ccccc1` (stereo not drawn) [Example 7, 3-{4-amino-5-cyanopyrrolo[2,1-f][1,2,4]triazin-7-yl}-N-(3-phenylbutyl)benzamide], the IC50 was determined as 0.062 µM.

Take `COc1c(F)cc(-c2cc(C(F)(F)F)c3c(N)ncnn23)cc1C(=O)N[C@@H]1CN(C(=O)C2CC(F)C2)C[C@@H]1F` (stereo partly drawn) [Example 687, 5[-4-amino-5-(trifluoromethyl)pyrrolo[2,1-f][1,2,4]triazin-7-yl]-3-fluoro-N-[(3R,4S)-4-fluoro-1-(3-fluorocyclobutanecarbonyl)pyrrolidin-3-yl]-2-methoxybenzamide]: the IC50 was 0.037 µM.

On to `Nc1ncnn2c(-c3ccc(OC(F)F)c(C(=O)N[C@@H]4CN(C(=O)c5ccccc5F)C[C@@H]4F)c3)cc(C(F)(F)F)c12` [Example 1089, 5-[4-amino-5-(trifluoromethyl)pyrrolo[2,1-f][1,2,4]triazin-7-yl]-2-(difluoromethoxy)-N-[(3R,4S)-4-fluoro-1-(2-fluorobenzoyl)pyrrolidin-3-yl]benzamide], for which the IC50 worked out at 0.044 µM.

In the case of `Nc1ncnn2c(-c3ccc(OC(F)(F)F)c(C(=O)N[C@@H]4CN(C(=O)C5CCC(F)(F)CC5)C[C@@H]4F)c3)cc(C(F)(F)F)c12` [Example 1057, 5-[4-amino-5-(trifluoromethyl)pyrrolo[2,1-f][1,2,4]triazin-7-yl]-N-[(3R,4S)-1-(4,4-difluorocyclohexanecarbonyl)-4-fluoropyrrolidin-3-yl]-2-(trifluoromethoxy)benzamide], the IC50 was found to be 0.109 µM.

On to `[2H]C([2H])([2H])Oc1ncc(-c2cc(C(F)(F)F)c3c(N)ncnn23)cc1C(=O)N[C@@H]1CN(C(=O)C2CCC(F)(F)CC2)C[C@@H]1F` [Example 375, 5-[4-amino-5-(trifluoromethyl)pyrrolo [2,1-f][1,2,4]triazin-7-yl]-N-[(3R,4S)-1-(4,4-difluorocyclohexanecarbonyl)-4-fluoropyrrolidin-3-yl]-2-(deutero) methoxypyridine-3-carboxamide], for which the IC50 was 0.013 µM.
